Test results reported in a collection of fitness landscapes (doi:10.1016/j.celrep.2020.107928).
Whole data set: some 81,000 sequences, median “one-hybrid fitness for binding NBS DNA” near -0.1, cut for the highest 2% near 0.36. The list shows a part of the results.

B1: Caulobacter ParB omega fusion; a variant is named by its letters at X, in order, B8GW30 (parent)
chain: MESVVVGEPGMSEGRRGLGRGLSALLGEVDAAPAQAPGEQLGGSREAPIEILQRNPDQPRRTFREEDLEDLSNSIREKGVLQPILVRPSPDTAGEYQIVAGERAWRAAQRAGLKTVPIMVRELDDLAVLEIGIIENVQRADLNVLEEALSYKVLMEKFERTQENIAQTIGKSXSHVANXMRLLXLPDEVQSYLVSGELTAXHARAIAAAADPVALAKQIIEGGLSVRETEALARKAPNLSAGKSKGGRPPRVKDTDTQALESDLSSVLGLDVSIDHRGSTGTLTITYATLEQLDDLCNRLTRGI

Variants of: B1
Experiment: one-hybrid fitness for binding NBS DNA (the Noc-binding site; scaled: cognate 1, non-cognate 0); higher = stronger binding
Details: with NBS DNA site
Method in brief: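 Values were rescaled so that cognate is 1 and non-cognate is 0. Each is a fitness, the log change in a variant's read ratio to wild type from Illumina reads of plasmids before and after selection, with three replicate libraries pooled and variants under 10 reads dropped. Selection of the Caulobacter ParB libraries, four specificity codons randomised, used E. coli USO with a HIS3 reporter, site 19 bp from the promoter, on M9-minus-histidine with 0.1 mM IPTG and 5 mM 3-AT for 48 hours at 37°C.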

Row | Variant | one-hybrid fitness for binding NBS DNA
1 | VRYC | ≤ 0.2
2 | PQVE | ≤ 0.2
3 | CYMT | ≤ 0.2
4 | KMPS | ≤ 0.2
5 | PIGS | ≤ 0.2
6 | VDHT | ≤ 0.2
7 | RIIN | ≤ 0.2
8 | RESN | ≤ 0.2
9 | GAGL | ≤ 0.2
10 | CVPG | ≤ 0.2
11 | ALSY | ≤ 0.2
12 | NNYL | ≤ 0.2
13 | ARCL | ≤ 0.2
14 | RQIM | ≤ 0.2
15 | WRAV | ≤ 0.2
16 | PLWH | ≤ 0.2
17 | RAWS | 0.262
18 | HKSY | ≤ 0.2
19 | VVLP | ≤ 0.2
20 | HSQW | ≤ 0.2
21 | WAPY | ≤ 0.2
22 | KGRR | ≤ 0.2
23 | TPVF | ≤ 0.2
24 | YITC | ≤ 0.2

Row | Variant | one-hybrid fitness for binding NBS DNA
25 | SMAK | ≤ 0.2
26 | TNDF | ≤ 0.2
27 | QPFA | ≤ 0.2
28 | QKFP | ≤ 0.2
29 | QMMF | ≤ 0.2
30 | ARMM | ≤ 0.2
31 | ADHG | ≤ 0.2
32 | PCKG | ≤ 0.2
33 | EHDC | ≤ 0.2
34 | TSGE | ≤ 0.2
35 | CGYF | ≤ 0.2
36 | TPRN | ≤ 0.2
37 | QTQF | ≤ 0.2
38 | NYIG | ≤ 0.2
39 | ECLS | ≤ 0.2
40 | HKAS | ≤ 0.2
41 | CCHL | ≤ 0.2
42 | CVAR | ≤ 0.2
43 | HVTV | ≤ 0.2
44 | CDKA | ≤ 0.2
45 | ITYW | ≤ 0.2
46 | ERGV | ≤ 0.2
47 | TANH | ≤ 0.2
48 | NMTY | ≤ 0.2

Row | Variant | one-hybrid fitness for binding NBS DNA
49 | LPLH | ≤ 0.2
50 | TMMS | ≤ 0.2
51 | IYNM | ≤ 0.2
52 | QGVP | ≤ 0.2
53 | CLRS | ≤ 0.2
54 | WSVC | ≤ 0.2
55 | GWRK | ≤ 0.2
56 | QTIC | ≤ 0.2
57 | RMMG | ≤ 0.2
58 | HPDE | ≤ 0.2
59 | TQHL | ≤ 0.2
60 | CKPS | ≤ 0.2
61 | GHNG | ≤ 0.2
62 | QNPI | ≤ 0.2
63 | SFLS | ≤ 0.2
64 | ALFA | ≤ 0.2
65 | KLKE | ≤ 0.2
66 | AITV | ≤ 0.2
67 | SFQI | ≤ 0.2
68 | WIWG | ≤ 0.2
69 | CPLD | ≤ 0.2
70 | WLLC | ≤ 0.2
71 | YMSS | ≤ 0.2
72 | DWLL | ≤ 0.2

Row | Variant | one-hybrid fitness for binding NBS DNA
73 | GPWN | ≤ 0.2
74 | LFLG | ≤ 0.2
75 | RDYT | ≤ 0.2
76 | KHIG | ≤ 0.2
77 | RAAK | ≤ 0.2
78 | DWAG | ≤ 0.2
79 | TRNR | 0.466
80 | YTRE | ≤ 0.2
81 | LSRP | ≤ 0.2
82 | NRLY | ≤ 0.2
83 | DNEC | ≤ 0.2
84 | HKVV | ≤ 0.2
85 | WGNH | ≤ 0.2
86 | TPHE | ≤ 0.2
87 | QKRF | 0.258
88 | TEQT | ≤ 0.2
89 | LTCM | ≤ 0.2
90 | AIKM | ≤ 0.2
91 | LHNV | ≤ 0.2
92 | QNGI | ≤ 0.2
93 | HHTD | ≤ 0.2
94 | RMTL | ≤ 0.2
95 | RWCT | ≤ 0.2
96 | KTTC | ≤ 0.2

Row | Variant | one-hybrid fitness for binding NBS DNA
97 | HSQY | ≤ 0.2
98 | YSWC | ≤ 0.2
99 | EMLK | ≤ 0.2
100 | PTPK | ≤ 0.2
101 | SHQQ | ≤ 0.2
102 | PYSK | ≤ 0.2
103 | FRVL | ≤ 0.2
104 | SMGI | ≤ 0.2
105 | NPGS | ≤ 0.2
106 | HMVI | ≤ 0.2
107 | YNKV | ≤ 0.2
108 | TNPD | ≤ 0.2
109 | YNTT | ≤ 0.2
110 | GGLV | ≤ 0.2
111 | DTFC | ≤ 0.2
112 | MFVT | ≤ 0.2
113 | AVYT | ≤ 0.2
114 | YLAT | ≤ 0.2
115 | MNPL | ≤ 0.2
116 | TWQS | ≤ 0.2
117 | HKGC | ≤ 0.2
118 | GNDV | ≤ 0.2
119 | GANC | ≤ 0.2
120 | GLNP | ≤ 0.2

Row | Variant | one-hybrid fitness for binding NBS DNA
121 | VHHN | ≤ 0.2
122 | PKKF | ≤ 0.2
123 | SPSF | ≤ 0.2
124 | VNGK | ≤ 0.2
125 | CYVS | ≤ 0.2
126 | KQMR | ≤ 0.2
127 | AADR | ≤ 0.2
128 | MNDS | ≤ 0.2
129 | PTRN | ≤ 0.2
130 | NLSN | ≤ 0.2
131 | PHIK | ≤ 0.2
132 | KLGR | ≤ 0.2
133 | MPGY | ≤ 0.2
134 | KHEG | ≤ 0.2
135 | ASFA | ≤ 0.2
136 | QSDR | 0.317
137 | ADLV | ≤ 0.2
138 | KDMG | ≤ 0.2
139 | LKRI | ≤ 0.2
140 | GYKL | ≤ 0.2
141 | NIKQ | ≤ 0.2
142 | QLRL | ≤ 0.2
143 | LWNR | ≤ 0.2
144 | KGAN | ≤ 0.2

Row | Variant | one-hybrid fitness for binding NBS DNA
145 | QLFM | ≤ 0.2
146 | TAWI | ≤ 0.2
147 | KRRK | 0.319
148 | RFRD | ≤ 0.2
149 | SRGE | ≤ 0.2
150 | GAPT | ≤ 0.2
151 | HRLK | ≤ 0.2
152 | RNAW | ≤ 0.2
153 | YCAL | ≤ 0.2
154 | PVGA | ≤ 0.2
155 | NTPW | ≤ 0.2
156 | DQPR | ≤ 0.2
157 | INPC | ≤ 0.2
158 | GAKT | ≤ 0.2
159 | EWQS | ≤ 0.2
160 | HIST | ≤ 0.2
161 | FLAF | ≤ 0.2
162 | GIPM | ≤ 0.2
163 | HSNV | ≤ 0.2
164 | PFTK | ≤ 0.2
165 | KANT | ≤ 0.2
166 | NRSG | ≤ 0.2
167 | WTRT | ≤ 0.2
168 | IYNT | ≤ 0.2

Row | Variant | one-hybrid fitness for binding NBS DNA
169 | SFFI | ≤ 0.2
170 | RELP | ≤ 0.2
171 | QARF | 0.266
172 | DPAS | ≤ 0.2
173 | AELR | ≤ 0.2
174 | CLHL | ≤ 0.2
175 | DASI | ≤ 0.2
176 | TTKQ | ≤ 0.2
177 | KSFF | ≤ 0.2
178 | GHWA | ≤ 0.2
179 | RKNI | ≤ 0.2
180 | KGTR | ≤ 0.2
181 | LALK | ≤ 0.2
182 | FTMY | ≤ 0.2
183 | MTRI | ≤ 0.2
184 | PWPT | ≤ 0.2
185 | CRAD | ≤ 0.2
186 | SVTH | ≤ 0.2
187 | VPHF | ≤ 0.2
188 | NHYR | ≤ 0.2
189 | WGRL | ≤ 0.2
190 | EITI | ≤ 0.2
191 | KSRR | 0.343
192 | YATH | ≤ 0.2

Row | Variant | one-hybrid fitness for binding NBS DNA
193 | KHDS | ≤ 0.2
194 | TSIH | ≤ 0.2
195 | AMCN | ≤ 0.2
196 | GCQR | ≤ 0.2
197 | WPRS | ≤ 0.2
198 | IYFG | ≤ 0.2
199 | AAPE | ≤ 0.2
200 | HQST | ≤ 0.2
201 | RFNG | ≤ 0.2
202 | ATNH | ≤ 0.2
203 | VDVV | ≤ 0.2
204 | GKAE | ≤ 0.2
205 | THPC | ≤ 0.2
206 | RCFP | ≤ 0.2
207 | KWEL | ≤ 0.2
208 | MKSN | ≤ 0.2
209 | GNKY | ≤ 0.2
210 | VLIG | ≤ 0.2
211 | NVES | ≤ 0.2
212 | QHGS | 0.343
213 | DNRG | ≤ 0.2
214 | WPSS | ≤ 0.2
215 | SCRV | ≤ 0.2
216 | EVVE | ≤ 0.2

Row | Variant | one-hybrid fitness for binding NBS DNA
217 | RWIC | ≤ 0.2
218 | ACVC | ≤ 0.2
219 | QKNL | ≤ 0.2
220 | AQRL | ≤ 0.2
221 | LGAN | ≤ 0.2
222 | QFDF | ≤ 0.2
223 | RKGF | ≤ 0.2
224 | TGQL | ≤ 0.2
225 | PTYI | ≤ 0.2
226 | PNYG | ≤ 0.2
227 | WRPY | ≤ 0.2
228 | ILAH | ≤ 0.2
229 | INAC | ≤ 0.2
230 | CAHR | ≤ 0.2
231 | PGWW | ≤ 0.2
232 | FKLE | ≤ 0.2
233 | EIIT | ≤ 0.2
234 | VRHR | 0.327
235 | MFPS | ≤ 0.2
236 | VISF | ≤ 0.2
237 | FVLH | ≤ 0.2
238 | VRQL | ≤ 0.2
239 | PDAR | ≤ 0.2
240 | DFLF | ≤ 0.2

Row | Variant | one-hybrid fitness for binding NBS DNA
241 | YWAY | ≤ 0.2
242 | RITK | ≤ 0.2
243 | AMQR | ≤ 0.2
244 | WRKI | ≤ 0.2
245 | GPRM | ≤ 0.2
246 | IVVY | ≤ 0.2
247 | FQCC | ≤ 0.2
248 | EGLH | ≤ 0.2
249 | LSGL | ≤ 0.2
250 | CPKT | ≤ 0.2
251 | RGPS | 0.258
252 | RIQK | ≤ 0.2
253 | YNRS | ≤ 0.2
254 | RCEH | ≤ 0.2
255 | LVYT | ≤ 0.2
256 | RSNW | ≤ 0.2
257 | FNTS | ≤ 0.2
258 | HSLT | ≤ 0.2
259 | RKPF | ≤ 0.2
260 | WNTS | ≤ 0.2
261 | RQWG | ≤ 0.2
262 | DLHD | ≤ 0.2
263 | PHRF | ≤ 0.2
264 | QHSM | ≤ 0.2

Row | Variant | one-hybrid fitness for binding NBS DNA
265 | QWDN | ≤ 0.2
266 | ARIF | ≤ 0.2
267 | TDSG | ≤ 0.2
268 | DNKC | ≤ 0.2
269 | ARFF | ≤ 0.2
270 | DWNL | ≤ 0.2
271 | VTFC | ≤ 0.2
272 | LSST | ≤ 0.2
273 | LATS | ≤ 0.2
274 | GCTF | ≤ 0.2
275 | NKST | ≤ 0.2
276 | TIHW | ≤ 0.2
277 | GLHY | ≤ 0.2
278 | KTTR | 0.202
279 | YNTS | ≤ 0.2
280 | ERYF | ≤ 0.2
281 | RFYF | ≤ 0.2
282 | CAEL | ≤ 0.2
283 | WRTF | ≤ 0.2
284 | VIAK | ≤ 0.2
285 | PNMV | ≤ 0.2
286 | ALHT | ≤ 0.2
287 | ANWC | ≤ 0.2
288 | FARA | ≤ 0.2

Row | Variant | one-hybrid fitness for binding NBS DNA
289 | REHK | ≤ 0.2
290 | KTET | ≤ 0.2
291 | CYRR | 0.223
292 | DLMG | ≤ 0.2
293 | APYS | ≤ 0.2
294 | KRNI | ≤ 0.2
295 | TRCL | ≤ 0.2
296 | SYVM | ≤ 0.2
297 | HRWT | ≤ 0.2
298 | CCPT | ≤ 0.2
299 | RWGR | ≤ 0.2
300 | QSGV | ≤ 0.2
301 | FTVR | ≤ 0.2
302 | GNTM | ≤ 0.2
303 | RVAI | ≤ 0.2
304 | WFQS | ≤ 0.2
305 | RYIA | ≤ 0.2
306 | RAPV | ≤ 0.2
